What all share (assay): universal protein binding microarray (PBM)
Common to all, as to conditions: transcription factors of Arabidopsis thaliana; high values mean tight binding; most listed sequences are background and not binding sites; double strand, one strand shown

One test has as its target GST-NTL6(1-168) (UniProt Q9SCK6).
The target in the next test is T1, GST-ANAC019 NAC domain (UniProt Q9C932).
T1 sequence: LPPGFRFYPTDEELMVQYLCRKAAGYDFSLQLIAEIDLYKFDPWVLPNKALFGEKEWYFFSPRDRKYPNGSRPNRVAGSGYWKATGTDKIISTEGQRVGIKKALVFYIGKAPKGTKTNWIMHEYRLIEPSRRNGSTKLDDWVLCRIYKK

The target in test [1] is T2, GST-ANAC092(1-285) full length (UniProt Q9FKA0).
T2 sequence: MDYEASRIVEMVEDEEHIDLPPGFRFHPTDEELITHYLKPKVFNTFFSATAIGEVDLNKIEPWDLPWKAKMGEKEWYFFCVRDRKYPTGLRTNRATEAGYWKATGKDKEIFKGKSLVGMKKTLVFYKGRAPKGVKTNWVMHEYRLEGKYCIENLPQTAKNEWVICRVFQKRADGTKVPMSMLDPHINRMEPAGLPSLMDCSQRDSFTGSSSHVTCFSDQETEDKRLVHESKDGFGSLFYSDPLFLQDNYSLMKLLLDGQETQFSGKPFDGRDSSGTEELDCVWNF

For the next test, the target named is T3, GST-NAP(1-166) (UniProt O49255).
T3 sequence: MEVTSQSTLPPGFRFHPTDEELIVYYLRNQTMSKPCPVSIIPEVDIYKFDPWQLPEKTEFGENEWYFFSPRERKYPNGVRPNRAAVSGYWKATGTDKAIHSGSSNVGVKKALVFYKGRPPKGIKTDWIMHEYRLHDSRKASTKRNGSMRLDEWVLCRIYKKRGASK

In another test the target is T4, GST-NTL8 NAC domain (UniProt Q9XIN7).
T4 sequence: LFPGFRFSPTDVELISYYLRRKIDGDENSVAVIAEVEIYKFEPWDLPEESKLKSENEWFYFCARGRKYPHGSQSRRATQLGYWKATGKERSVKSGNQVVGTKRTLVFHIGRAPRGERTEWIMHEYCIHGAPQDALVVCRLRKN

The target of the next test is T5, GST-SND1(1-203) (UniProt Q9LPI7).
T5 sequence: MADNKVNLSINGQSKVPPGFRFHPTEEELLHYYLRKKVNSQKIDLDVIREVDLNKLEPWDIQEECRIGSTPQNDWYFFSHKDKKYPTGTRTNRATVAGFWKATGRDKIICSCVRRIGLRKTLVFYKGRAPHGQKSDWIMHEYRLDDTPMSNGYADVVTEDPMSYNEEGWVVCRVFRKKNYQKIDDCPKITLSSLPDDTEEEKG

Test [2] addresses T6, GST-VOZ2 (Arabidopsis thaliana) (UniProt Q9SLB9).
T6 sequence: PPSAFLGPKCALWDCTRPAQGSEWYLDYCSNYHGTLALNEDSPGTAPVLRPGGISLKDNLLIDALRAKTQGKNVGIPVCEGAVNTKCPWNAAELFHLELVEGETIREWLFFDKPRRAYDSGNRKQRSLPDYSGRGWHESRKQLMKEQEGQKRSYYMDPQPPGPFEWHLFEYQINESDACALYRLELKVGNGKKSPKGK

The target of another test is GST-WRKY1(266-371) (UniProt Q9SI37).
The target of the next test is T7, GST-ANAC092(1-176) (UniProt Q9FKA0).
T7 sequence: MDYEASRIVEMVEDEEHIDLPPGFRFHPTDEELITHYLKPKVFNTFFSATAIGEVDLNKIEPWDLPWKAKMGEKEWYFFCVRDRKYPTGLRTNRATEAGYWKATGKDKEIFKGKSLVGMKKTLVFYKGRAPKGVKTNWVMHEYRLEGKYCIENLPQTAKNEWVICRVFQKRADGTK

Another test deals with T8, GST-NST2(1-184) (UniProt Q9M274).
T8 sequence: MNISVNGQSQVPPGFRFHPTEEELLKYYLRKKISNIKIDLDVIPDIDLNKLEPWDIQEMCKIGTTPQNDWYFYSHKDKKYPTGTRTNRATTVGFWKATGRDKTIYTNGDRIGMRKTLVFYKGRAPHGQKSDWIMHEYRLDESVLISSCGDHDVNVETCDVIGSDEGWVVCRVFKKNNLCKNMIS

The next test has as its target T9, GST-ANAC055(1-171) (UniProt Q9LDY8).
T9 sequence: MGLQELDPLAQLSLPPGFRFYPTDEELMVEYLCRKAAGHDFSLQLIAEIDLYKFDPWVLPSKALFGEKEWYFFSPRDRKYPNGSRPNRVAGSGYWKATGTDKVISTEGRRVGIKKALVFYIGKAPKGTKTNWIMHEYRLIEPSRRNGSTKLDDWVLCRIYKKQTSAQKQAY

Another test deals with T10, GST-ATAF1 NAC domain (UniProt Q39013).
T10 sequence: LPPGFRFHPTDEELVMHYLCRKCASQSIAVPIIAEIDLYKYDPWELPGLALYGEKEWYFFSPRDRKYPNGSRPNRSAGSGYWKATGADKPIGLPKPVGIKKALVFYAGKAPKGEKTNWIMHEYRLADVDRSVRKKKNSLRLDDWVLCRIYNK

This is a selection; strong and weak results do not stand in their true shares. For some assays here: At the low end of the ranking the order means little. Some of the results follow. For some assays here: The exact form of the protein is not confirmed.

Take ATACGCTA: the binding signal with GST-NTL6(1-168) was 0.0936 E-score; with GST-ANAC019 NAC domain it was 0.000615 E-score; in test [1] it was 0.466 E-score; with GST-NAP(1-166) it was 0.155 E-score; with GST-NTL8 NAC domain it was -0.104 E-score; with GST-SND1(1-203) it was 0.458 E-score. Also, the binding signal is 0.209 E-score in test [2] and -0.0695 E-score in the test with GST-WRKY1(266-371).
Consider ACGTCACT, for which the binding signal is 0.383 E-score with GST-ANAC092(1-176); 0.0658 E-score with GST-NTL6(1-168); 0.365 E-score in the test with GST-ANAC019 NAC domain; 0.354 E-score in the test with GST-NAP(1-166); -0.0642 E-score with GST-NTL8 NAC domain; 0.314 E-score in the test with GST-SND1(1-203). The figures for the binding signal (in test [2]; with GST-WRKY1(266-371)) were 0.0258 E-score and 0.0284 E-score, respectively.
For the sequence ACGGCACG, the binding signal is -0.073 E-score with GST-NTL6(1-168); -0.157 E-score with GST-NTL8 NAC domain; 0.0651 E-score with GST-SND1(1-203); -0.086 E-score in [2]; -0.126 E-score in the test with GST-WRKY1(266-371).
On to GCACGGTA, for which the binding signal was -0.0375 E-score with GST-NTL6(1-168); 0.2 E-score with GST-ANAC019 NAC domain; 0.408 E-score in test [1]; -0.0201 E-score with GST-NST2(1-184); -0.0442 E-score in the test with GST-NTL8 NAC domain; 0.0103 E-score with GST-SND1(1-203). For the same sequence, the binding signal in test [2] was -0.0537 E-score; with GST-WRKY1(266-371), -0.048 E-score.
Regarding ATTGCTTC, the binding signal with GST-ANAC019 NAC domain was 0.108 E-score; with GST-ANAC055(1-171), 0.0988 E-score; in the test with GST-ATAF1 NAC domain it was -0.0282 E-score; with GST-NAP(1-166), 0.0172 E-score; in the test with GST-NTL8 NAC domain it was 0.278 E-score; with GST-SND1(1-203), 0.411 E-score. The binding signal in test [2] is -0.0112 E-score; with GST-WRKY1(266-371), -0.0776 E-score.
On to CTAAGTAA, for which the binding signal is 0.49 E-score in the test with GST-NTL6(1-168); 0.216 E-score with GST-NTL8 NAC domain; 0.394 E-score with GST-SND1(1-203); 0.0376 E-score in [2]; 0.0382 E-score with GST-WRKY1(266-371).
With AGGGTAAG, the binding signal with GST-NTL6(1-168) was 0.245 E-score; with GST-ANAC055(1-171), -0.0223 E-score; in the test with GST-ATAF1 NAC domain it was -0.0198 E-score; in [1] it was 0.0319 E-score; with GST-SND1(1-203), 0.111 E-score; in test [2] it was 0.119 E-score. This sequence also registered a binding signal in the test with GST-WRKY1(266-371) of 0.0221 E-score.
Turning to GTTGACAA, the binding signal was -0.0951 E-score in the test with GST-ANAC092(1-176); 0.00179 E-score with GST-NTL6(1-168); -0.0316 E-score in the test with GST-ANAC019 NAC domain; 0.116 E-score with GST-NAP(1-166); -0.00464 E-score with GST-NST2(1-184); -0.0511 E-score in the test with GST-NTL8 NAC domain. Besides, the binding signal was 0.0265 E-score with GST-SND1(1-203), 0.0415 E-score in [2] and 0.446 E-score with GST-WRKY1(266-371).
Take ACGCTACA: the binding signal with GST-NTL6(1-168) is 0.051 E-score; with GST-ANAC019 NAC domain, -0.0101 E-score; in the test with GST-NST2(1-184), 0.249 E-score; with GST-NTL8 NAC domain, 0.00254 E-score; with GST-SND1(1-203) it was 0.402 E-score; in test [2], 0.137 E-score. The sequence also returned a binding signal with GST-WRKY1(266-371) of -0.0858 E-score.
On to AGAAGGAA, for which the binding signal in the test with GST-ANAC092(1-176) was 0.192 E-score; with GST-NTL6(1-168), 0.417 E-score; with GST-ANAC019 NAC domain, 0.0646 E-score; in the test with GST-ATAF1 NAC domain it was 0.149 E-score; with GST-NAP(1-166) it was -0.0992 E-score; in the test with GST-NST2(1-184), 0.177 E-score. Moreover, the binding signal was 0.157 E-score with GST-SND1(1-203), 0.00768 E-score in test [2] and -0.00911 E-score with GST-WRKY1(266-371).
Consider CACGGAAG, for which the binding signal in the test with GST-NTL6(1-168) was 0.0727 E-score; in the test with GST-ANAC019 NAC domain, 0.471 E-score; in the test with GST-ANAC055(1-171), 0.435 E-score; in the test with GST-NST2(1-184), 0.12 E-score; in the test with GST-SND1(1-203), 0.164 E-score; in [2] it was 0.00631 E-score. In the test with GST-WRKY1(266-371), this sequence displayed a binding signal of 0.0393 E-score.
With TAAGTTAA, the binding signal with GST-NTL6(1-168) is 0.418 E-score; with GST-ATAF1 NAC domain it was 0.157 E-score; with GST-NAP(1-166), -0.025 E-score; with GST-NTL8 NAC domain, 0.0196 E-score; in the test with GST-SND1(1-203), 0.297 E-score; in [2], 0.00779 E-score. The binding signal with GST-WRKY1(266-371) was -0.177 E-score.
Turning to ACACGACT, the binding signal with GST-NTL6(1-168) is -0.0632 E-score; with GST-ANAC055(1-171), 0.364 E-score; in the test with GST-NTL8 NAC domain, 0.0226 E-score; with GST-SND1(1-203) it was -0.0213 E-score; in test [2] it was -0.0365 E-score; with GST-WRKY1(266-371), 0.312 E-score.
For AGAGTCAA, the binding signal with GST-ANAC092(1-176) is -0.00378 E-score; with GST-NTL6(1-168), 0.0479 E-score; in the test with GST-ANAC055(1-171), 0.0194 E-score; with GST-ATAF1 NAC domain it was 0.0426 E-score; in test [1] it was -0.121 E-score; with GST-NAP(1-166), 0.0194 E-score. Besides, the binding signal in the test with GST-NTL8 NAC domain is -0.0389 E-score; with GST-SND1(1-203) it was 0.0237 E-score; in test [2], -0.131 E-score; with GST-WRKY1(266-371), 0.48 E-score.
CGCACGCA: the binding signal is -0.0637 E-score with GST-NTL6(1-168); 0.0589 E-score with GST-ATAF1 NAC domain; 0.291 E-score with GST-NAP(1-166); -0.0173 E-score in the test with GST-NTL8 NAC domain; 0.229 E-score with GST-SND1(1-203); -0.0926 E-score in [2]. In addition, in the test with GST-WRKY1(266-371), the binding signal was -0.0337 E-score.
As for GTTTCTTA, the binding signal is 0.141 E-score with GST-ANAC019 NAC domain; -0.0134 E-score with GST-NAP(1-166); 0.33 E-score with GST-SND1(1-203); 0.153 E-score in test [2]; -0.0659 E-score with GST-WRKY1(266-371).
With ATACGTTA, the binding signal in the test with GST-NTL6(1-168) was -0.0443 E-score; in the test with GST-ANAC055(1-171), 0.139 E-score; with GST-ATAF1 NAC domain it was 0.273 E-score; in the test with GST-NTL8 NAC domain it was -0.0674 E-score; with GST-SND1(1-203), 0.433 E-score; in [2] it was -0.00046 E-score. The binding signal with GST-WRKY1(266-371) is -0.109 E-score.
Turning to GCACGGCA, the binding signal in the test with GST-NTL6(1-168) was -0.151 E-score; in the test with GST-NTL8 NAC domain, -0.0536 E-score; in the test with GST-SND1(1-203) it was 0.107 E-score; in test [2], -0.113 E-score; with GST-WRKY1(266-371), -0.0751 E-score.

These data come from publication PMC4081100.
